# Test system: Lewis lung carcinoma
# Test: Lewis lung carcinoma in vivo (increase in lifespan)
# Details: at the stated dose (OD)
# From the text: LL. is the Lewis lung carcinoma.
row,SMILES,"active, Lewis lung"
1,CNc1cc(NS(C)(=O)=O)ccc1Nc1c2ccccc2nc2ccccc12 [Compound 1],Y (implies a significant value of drug activity at the stated dose)
2,CNc1cc(NS(C)(=O)=O)ccc1Nc1c2ccccc2nc2c(C)cccc12 [Compound 12],Y (implies a significant value of drug activity at the stated dose)
3,CNc1cc(NS(C)(=O)=O)ccc1Nc1c2ccccc2nc2c(OC)cccc12 [Compound 13],Y (implies a significant value of drug activity at the stated dose)
4,CNc1cc(NS(C)(=O)=O)ccc1Nc1c2ccc(F)cc2nc2c(C)cccc12 [Compound 18],Y (implies a significant value of drug activity at the stated dose)
5,CNc1cc(NS(C)(=O)=O)ccc1Nc1c2ccc(Cl)cc2nc2c(C)cccc12 [Compound 19],Y (implies a significant value of drug activity at the stated dose)
6,CN(C)c1cc(NS(C)(=O)=O)ccc1Nc1c2ccccc2nc2ccccc12 [Compound 32],Y (implies a significant value of drug activity at the stated dose)
7,CNc1cc(NC(=O)OC)ccc1Nc1c2ccc(Cl)cc2nc2c(C)cccc12 [Compound 56],Y (implies a significant value of drug activity at the stated dose)
8,CNc1cc(NC(=O)OC)ccc1Nc1c2ccc(Br)cc2nc2c(C)cccc12 [Compound 57],Y (implies a significant value of drug activity at the stated dose)
9,CNc1cc(NC(=O)OC)ccc1Nc1c2ccccc2nc2c(C)cccc12 [Compound 58],Y (implies a significant value of drug activity at the stated dose)

# Test system: P388 Leukemia
# Test: P388 leukemia in vivo (increase in lifespan)
# Details: at the stated dose (OD)
row,SMILES,"active, P388"
1,CNc1cc(NS(C)(=O)=O)ccc1Nc1c2ccccc2nc2ccccc12 [Compound 1],Y (implies a significant value of drug activity at the stated dose)
2,CNc1cc(NS(C)(=O)=O)ccc1Nc1c2ccccc2nc2cc(C)ccc12 [Compound 3],Y (implies a significant value of drug activity at the stated dose)
3,CNc1cc(NS(C)(=O)=O)ccc1Nc1c2ccccc2nc2cc(OC)ccc12 [Compound 4],Y (implies a significant value of drug activity at the stated dose)
4,CNc1cc(NS(C)(=O)=O)ccc1Nc1c2ccccc2nc2cc(F)ccc12 [Compound 5],Y (implies a significant value of drug activity at the stated dose)
5,CNc1cc(NS(C)(=O)=O)ccc1Nc1c2ccccc2nc2cc(Cl)ccc12 [Compound 6],Y (implies a significant value of drug activity at the stated dose)
6,CNc1cc(NS(C)(=O)=O)ccc1Nc1c2ccccc2nc2cc(Br)ccc12 [Compound 7],Y (implies a significant value of drug activity at the stated dose)
7,CNc1cc(NS(C)(=O)=O)ccc1Nc1c2ccccc2nc2cc(I)ccc12 [Compound 8],Y (implies a significant value of drug activity at the stated dose)
8,CNc1cc(NS(C)(=O)=O)ccc1Nc1c2ccccc2nc2cc([N+](=O)[O-])ccc12 [Compound 9],Y (implies a significant value of drug activity at the stated dose)
9,CNc1ccc2c(Nc3ccc(NS(C)(=O)=O)cc3NC)c3ccccc3nc2c1 [Compound 10],Y (implies a significant value of drug activity at the stated dose)
10,CNc1cc(NS(C)(=O)=O)ccc1Nc1c2ccccc2nc2cc(NC(=O)OC)ccc12 [Compound 11],Y (implies a significant value of drug activity at the stated dose)
11,CNc1cc(NS(C)(=O)=O)ccc1Nc1c2ccccc2nc2c(C)cccc12 [Compound 12],Y (implies a significant value of drug activity at the stated dose)
12,CNc1cc(NS(C)(=O)=O)ccc1Nc1c2ccccc2nc2c(OC)cccc12 [Compound 13],Y (implies a significant value of drug activity at the stated dose)
13,CNC(=O)c1cccc2c(Nc3ccc(NS(C)(=O)=O)cc3NC)c3ccccc3nc12 [Compound 15],Y (implies a significant value of drug activity at the stated dose)
14,CNc1cc(NS(C)(=O)=O)ccc1Nc1c2ccc(C)cc2nc2c(C)cccc12 [Compound 16],Y (implies a significant value of drug activity at the stated dose)
15,CNc1cc(NS(C)(=O)=O)ccc1Nc1c2ccc(OC)cc2nc2c(C)cccc12 [Compound 17],Y (implies a significant value of drug activity at the stated dose)
16,CNc1cc(NS(C)(=O)=O)ccc1Nc1c2ccc(F)cc2nc2c(C)cccc12 [Compound 18],Y (implies a significant value of drug activity at the stated dose)
17,CNc1cc(NS(C)(=O)=O)ccc1Nc1c2ccc(Cl)cc2nc2c(C)cccc12 [Compound 19],Y (implies a significant value of drug activity at the stated dose)
18,CNc1cc(NS(C)(=O)=O)ccc1Nc1c2ccc(Cl)cc2nc2c(OC)cccc12 [Compound 20],Y (implies a significant value of drug activity at the stated dose)
19,CNc1cc(NS(C)(=O)=O)ccc1Nc1c2ccc(Br)cc2nc2c(C)cccc12 [Compound 21],Y (implies a significant value of drug activity at the stated dose)
20,CNc1cc(NS(C)(=O)=O)ccc1Nc1c2ccc(C)cc2nc2c(OC)cccc12 [Compound 22],Y (implies a significant value of drug activity at the stated dose)
21,CNC(=O)c1cccc2c(Nc3ccc(NS(C)(=O)=O)cc3NC)c3ccc(Cl)cc3nc12 [Compound 23],Y (implies a significant value of drug activity at the stated dose)
22,CNC(=O)c1cccc2c(Nc3ccc(NS(C)(=O)=O)cc3NC)c3cccc(C)c3nc12 [Compound 24],Y (implies a significant value of drug activity at the stated dose)
23,CNc1cc(NS(C)(=O)=O)ccc1Nc1c2cccc(C)c2nc2c(C)cccc12 [Compound 25],Y (implies a significant value of drug activity at the stated dose)
24,CNc1cc(NS(C)(=O)=O)ccc1Nc1c2cccc(OC)c2nc2c(OC)cccc12 [Compound 26],Y (implies a significant value of drug activity at the stated dose)
25,CS(=O)(=O)Nc1ccc(Nc2c3ccccc3nc3ccccc23)c(NCCO)c1 [Compound 27],Y (implies a significant value of drug activity at the stated dose)
26,CS(=O)(=O)Nc1ccc(Nc2c3ccccc3nc3cc(Br)ccc23)c(NCCO)c1 [Compound 28],Y (implies a significant value of drug activity at the stated dose)

row,SMILES,"active, P388"
1,Cc1cccc2c(Nc3ccc(NS(C)(=O)=O)cc3NCCO)c3ccccc3nc12 [Compound 29],Y (implies a significant value of drug activity at the stated dose)
2,CS(=O)(=O)Nc1ccc(Nc2c3ccccc3nc3ccccc23)c(NCC(O)CO)c1 (stereo not shown) [Compound 30],Y (implies a significant value of drug activity at the stated dose)
3,Cc1cccc2c(Nc3ccc(NS(C)(=O)=O)cc3NCC(O)CO)c3ccccc3nc12 (stereo not shown) [Compound 31],Y (implies a significant value of drug activity at the stated dose)
4,CN(C)c1cc(NS(C)(=O)=O)ccc1Nc1c2ccccc2nc2ccccc12 [Compound 32],Y (implies a significant value of drug activity at the stated dose)
5,CN(CCO)c1cc(NS(C)(=O)=O)ccc1Nc1c2ccccc2nc2ccccc12 [Compound 45],Y (implies a significant value of drug activity at the stated dose)
6,Cc1cccc2c(Nc3ccc(NS(C)(=O)=O)cc3N(C)CCO)c3ccccc3nc12 [Compound 46],Y (implies a significant value of drug activity at the stated dose)
7,CNc1cc(NP(=O)(OC)OC)ccc1Nc1c2ccccc2nc2ccccc12 [Compound 47],Y (implies a significant value of drug activity at the stated dose)
8,CNc1cc(NP(=O)(OC)OC)ccc1Nc1c2ccccc2nc2cc(Br)ccc12 [Compound 48],Y (implies a significant value of drug activity at the stated dose)
9,CNc1cc(NP(=O)(OC)OC)ccc1Nc1c2ccccc2nc2c(C)cccc12 [Compound 49],Y (implies a significant value of drug activity at the stated dose)
10,COC(=O)Nc1ccc(Nc2c3ccccc3nc3ccccc23)c(NCCO)c1 [Compound 51],Y (implies a significant value of drug activity at the stated dose)
11,CNc1cc(NC(=O)OC)ccc1Nc1c2ccccc2nc2cc(C)ccc12 [Compound 52],Y (implies a significant value of drug activity at the stated dose)
12,CNc1cc(NC(=O)OC)ccc1Nc1c2ccccc2nc2cc(F)ccc12 [Compound 53],Y (implies a significant value of drug activity at the stated dose)
13,CNc1cc(NC(=O)OC)ccc1Nc1c2ccccc2nc2cc(Cl)ccc12 [Compound 54],Y (implies a significant value of drug activity at the stated dose)
14,CNc1cc(NC(=O)OC)ccc1Nc1c2ccccc2nc2cc(Br)ccc12 [Compound 55],Y (implies a significant value of drug activity at the stated dose)
15,CNc1cc(NC(=O)OC)ccc1Nc1c2ccc(Cl)cc2nc2c(C)cccc12 [Compound 56],Y (implies a significant value of drug activity at the stated dose)
16,CNc1cc(NC(=O)OC)ccc1Nc1c2ccc(Br)cc2nc2c(C)cccc12 [Compound 57],Y (implies a significant value of drug activity at the stated dose)
17,CNc1cc(NC(=O)OC)ccc1Nc1c2ccccc2nc2c(C)cccc12 [Compound 58],Y (implies a significant value of drug activity at the stated dose)
18,COC(=O)Nc1ccc(Nc2c3ccccc3nc3ccccc23)c(N(C)C)c1 [Compound 59],Y (implies a significant value of drug activity at the stated dose)
19,CNc1cc(NS(=O)(=O)c2ccccc2)ccc1Nc1c2ccccc2nc2ccccc12 [Compound 60],Y (implies a significant value of drug activity at the stated dose)
20,O=S(=O)(Nc1ccc(Nc2c3ccccc3nc3ccccc23)c(NCCO)c1)c1ccccc1 [Compound 61],Y (implies a significant value of drug activity at the stated dose)
21,CNc1cc(NS(=O)(=O)c2ccc(N)cc2)ccc1Nc1c2ccccc2nc2ccccc12 [Compound 62],Y (implies a significant value of drug activity at the stated dose)
22,CNc1cc(NS(=O)(=O)c2ccc(N)cc2)ccc1Nc1c2ccccc2nc2cc(Br)ccc12 [Compound 63],Y (implies a significant value of drug activity at the stated dose)
23,CNc1cc(NS(=O)(=O)c2ccc(N)cc2)ccc1Nc1c2ccccc2nc2c(C)cccc12 [Compound 64],Y (implies a significant value of drug activity at the stated dose)
24,Nc1ccc(S(=O)(=O)Nc2ccc(Nc3c4ccccc4nc4ccccc34)c(NCCO)c2)cc1 [Compound 65],Y (implies a significant value of drug activity at the stated dose)
25,CNc1cc(NC(=O)Oc2ccccc2)ccc1Nc1c2ccccc2nc2ccccc12 [Compound 66],Y (implies a significant value of drug activity at the stated dose)
26,"COc1cc(NS(C)(=O)=O)ccc1Nc1c2ccccc2nc2ccccc12 [m-AMSA, 4'-(9-acridinylamino)methanesulphon-m-anisidide, reference compound]",Y (implies a significant value of drug activity at the stated dose)
